In PubChem BioAssay AID588855 (National Center for Advancing Translational Sciences (NCATS), 2011):
In all, about 410,000 compounds went through this assay and about 5,000 (1.2%) were called active. The shares of active, inactive and inconclusive entries below differ from those in the screen. Calls come from the whole dose curve; as a rule, active = well fitted inhibition curve with a large enough effect; inconclusive = small, poorly fitted or top-dose-only effect; inactive = no such curve, though single readings can be large or run the other way. Potencies beside an inconclusive call are fits to weak or partial responses and may not hold up.
% is set by controls: 0 for no effect and ±100 for the full control effect; potency is the fitted concentration of half-maximal effect; tags give direction and shape of the fitted curve.

Assay: qHTS for Inhibitors of TGF-b; note: nearly all actives have a fitted effect of over 65% in size
Settings: HepG2 CAGA-GFP TGF-b/SMAD3 reporter, GFP fluorescence, 18 h, TGF-beta stimulated, 500 pg/mL final; series mostly up to 46.1 µM; activity, negative = inhibition: at the top concentration
How it was run: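 Cell-based qHTS in HEPG2 carrying a CAGA-GFP Smad reporter; compounds added before 500 pg/mL final TGF-beta, 18 h incubation at 37 degrees C, GFP fluorescence quantified per cell by imaging cytometry.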
With `CCN1CCN(C(c2ccccc2)c2nnnn2Cc2ccc(OC)cc2)CC1` (stereo not drawn) the “activity, negative = inhibition” value was inactive: -1.75%.
In the case of `COc1ccc2c(c1)CCc1cc(C(=O)N3CCN(c4ccc(N5CCOCC5)nn4)CC3)sc1-2`, the Potency is reported as inconclusive: 7.08 µM [inhibitor, full curve, poor fit].
With `COc1cc(N2CCCC2)c(OC)cc1/C=C(/C#N)c1cccc(F)c1` the “activity, negative = inhibition” value was inactive: 38.2%.
With `O=S(=O)(NCc1ccccc1Cl)c1ccc(N2CCCCS2(=O)=O)cc1` the Potency was inconclusive: 2 µM [inhibitor, full curve, poor fit].
With `COc1ccccc1-c1sc2ccccc2c1C#CC1(O)CCCCC1` the Potency was inconclusive: 35.5 µM [inhibitor, single point].
With `COC(=O)C(CC(C)C)NS(=O)(=O)c1ccccc1Br` (stereo not drawn) the Potency was inconclusive: 35.5 µM [inhibitor, single point].
In the case of `CC(Oc1cccc(Cl)c1)C(=O)Nc1ccc(N2CCOCC2)cc1N1CCOCC1` (stereo not drawn), the Potency is reported as inconclusive: 35.5 µM [inhibitor, single point].
In the case of `CCN(CC)CCNCC(O)(c1ccc(Cl)cc1)c1ccc(Cl)cc1`, the Potency is reported as inconclusive: 11.2 µM [inhibitor, partial curve, poor fit].
With `Nc1nccc(/C=C/c2ccc(Cl)cc2)n1` the Potency was inconclusive: 0.112 µM [inhibitor, full curve, poor fit].
With `COCc1cc(=O)n2[nH]c(C(F)(F)F)nc2n1` the Potency was inconclusive: 1.58 µM [inhibitor, full curve, poor fit].
In the case of `Cc1ccc([C@@H]2CC=C(C(=O)O)[C@H](c3cccc(F)c3)N2S(=O)(=O)c2ccccc2C)cc1`, the Potency is reported as inconclusive: 15.8 µM [inhibitor, single point].
For `NC(N)=N/N=C/c1cccc([N+](=O)[O-])c1O`, the “activity, negative = inhibition” value was inactive: -0.726%.
With `O=C(Nc1ccc2c(c1)C(=O)N(CC1CCCO1)C2=O)c1ccc(Cl)c(Cl)c1` (stereo not drawn) the Potency was inconclusive: 35.5 µM [inhibitor, single point].
For `Cc1ccccc1NS(=O)(=O)c1cccc2nsnc12`, the Potency was inconclusive: 7.08 µM [inhibitor, partial curve].
For `O=C(NNc1c2ccccc2nc2ccccc12)c1ccc(O)cc1`, the “activity, negative = inhibition” value was inactive: -0.54%.
For `CC1CCN(S(=O)(=O)c2cn(CC(=O)N3CCN(c4cccc(C(F)(F)F)c4)CC3)cn2)CC1`, the Potency was inconclusive: 17.8 µM [inhibitor, single point].
With `COc1ccc(NS(=O)(=O)c2cc(NC(=O)C3CC3)ccc2N2CCCCC2)cc1` the Potency was inconclusive: 10 µM [inhibitor, partial curve, poor fit].
In the case of `Cc1ccccc1NC(=O)CN(c1ccc(Cl)cc1Cl)S(=O)(=O)c1ccccc1`, the Potency is reported as inconclusive: 10 µM [inhibitor, partial curve, poor fit].
In the case of `Cc1ccccc1N1C(S)=C(C#N)C(=O)NC12CCCCC2`, the Potency is reported as inconclusive: 31.6 µM [inhibitor, single point].
With `COc1ccc(CNC(=O)C2CSC(=O)C2)cc1` (stereo not drawn) the Potency was inconclusive: 25.1 µM [inhibitor, single point].
For `CCCN(C(=O)CCNC(=O)Cn1cnc2ccccc2c1=O)c1cccc(Cl)c1`, the “activity, negative = inhibition” value was inactive: -3.58%.
With `O=S(=O)(NCCN1CCOCC1)c1ccc(Cl)c(Cl)c1` the “activity, negative = inhibition” value was inactive: -5.75%.
For `Cc1ccc(-c2nn(-c3ccccc3)cc2/C=N/NS(=O)(=O)c2ccccc2)cc1`, the Potency was inconclusive: 35.5 µM [inhibitor, single point].
With `C=C[C@@H]1c2ccccc2N(S(=O)(=O)c2ccc(C)cc2)[C@H](c2ccc(OC(C)=O)cc2)C1(C#N)C#N` the Potency was inconclusive: 35.5 µM [inhibitor, single point].
In the case of `CCCCNC(=O)[C@]1(C)CCC[C@@]2(C)C3CC[C@@]4(C)C[C@]3(CCC21)CC4=O` (stereo partly drawn), the “activity, negative = inhibition” value is reported as inactive: 2.02%.
In the case of `COc1ccc(OC)c(S(=O)(=O)N2CC=C(c3c(C)n(CC(=O)N4CCCC4)c4ccccc34)CC2)c1`, the Potency is reported as inconclusive: 8.91 µM [inhibitor, partial curve].
For `O=C(Nc1cccc(C(=O)O)c1)/C(=C/c1ccc([N+](=O)[O-])cc1)NC(=O)c1ccccc1`, the “activity, negative = inhibition” value was inactive: -23.1%.
With `O=C(c1ccco1)N1CCN(S(=O)(=O)c2cccc(Cl)c2)CC1` the “activity, negative = inhibition” value was inactive: -13.5%.
With `CCN1CCN(CCNC(=O)c2ccc(CS(=O)c3ccc(Cl)cc3)o2)CC1` (stereo not drawn) the “activity, negative = inhibition” value was inactive: 0.263%.
In the case of `CC(OC(=O)c1cc2sccc2n1C)C(=O)NCc1ccco1` (stereo not drawn), the Potency is reported as inconclusive: 17.8 µM [inhibitor, single point].
In the case of `CC(C)CC(=O)NC(=S)Nc1ccc(S(=O)(=O)NC(C)(C)C)cc1`, the “activity, negative = inhibition” value is reported as inactive: -10.9%.
In the case of `O=C(C(=Cc1ccccc1)c1ccccc1)c1ccccc1`, the Potency is reported as inconclusive: 14.1 µM [inhibitor, single point].
With `Cc1ccc(C)c(Cn2c3ccccc3c3cnn(CC(=O)NC(C)c4ccccc4)c(=O)c32)c1` (stereo not drawn) the “activity, negative = inhibition” value was inactive: -22.8%.
In the case of `CSc1ccc(-c2nc(CN3CCCCC3c3cccnc3)c(C)o2)cc1` (stereo not drawn), the Potency is reported as inconclusive: 35.5 µM [inhibitor, single point].
For `O=C(C1CCN(S(=O)(=O)c2cccnc2)CC1)N1CCN(c2ccccc2Cl)CC1`, the “activity, negative = inhibition” value was inactive: 2.36%.
In the case of `CC(C)(C)c1ccc(CN2N=C(/C=C/c3ccccc3)CCC2=O)cc1`, the Potency is reported as inconclusive: 35.5 µM [inhibitor, single point].
With `O=C(NCc1ccco1)C1CC(c2cc(C(F)(F)F)cc(C(F)(F)F)c2)=NO1` (stereo not drawn) the “activity, negative = inhibition” value was inactive: -28.4%.
In the case of `CC(C)C(OC(=O)c1ccco1)C(=O)NCc1cccs1` (stereo not drawn), the Potency is reported as inconclusive: 2.51 µM [inhibitor, single point].
For `NS(=O)(=O)c1cccc(C(=O)NC2CCSc3ccccc32)c1` (stereo not drawn), the Potency was inconclusive: 3.98 µM [inhibitor, partial curve, poor fit].
For `CCc1ccc(C2NC(=O)c3[nH]nc(-c4cccc(OC)c4)c32)cc1` (stereo not drawn), the Potency was inconclusive: 10 µM [inhibitor, partial curve, poor fit].
With `CC12CN3CCN(CC(C3)C1(O)CN1CCOCC1)C2` (stereo not drawn) the Potency was inconclusive: 35.5 µM [inhibitor, single point].
For `Cc1nn(C)c(C)c1CN(Cc1nc(CCC(C)C)no1)C(C)C`, the Potency was inconclusive: 7.08 µM [inhibitor, partial curve].
For `OC1CCN(Cc2cccc(Oc3ccccc3)c2)CC1`, the “activity, negative = inhibition” value was inactive: -12.6%.
